The text below walks through data of PubChem BioAssay AID463173 (ICCB-Longwood Screening Facility, Harvard Medical School, 2010).

The structures appear in SMILES notation. The campaign covered roughly 52,000 compounds. About 1,700 (3.3%) were called active. Cut-off read from the data, not from the text of the source: active = survival mostly below about 52% (no sharp cut-off); inactive = mostly above about 56%. Some of the results follow.

For the assay, the system named is Wild type. Briefly: S. aureus survival, RN4220 and DeltatarO strains – OD600, teichoic acid synthesis inhibitors, primary screen (AID 463173). Conditions: S. aureus RN4220 wild type/DeltatarO growth, OD600, 18 h, active compounds read low, screened at 18.75 µg/mL (by protocol).
In the case of `COc1ccc(Cl)cc1Nc1nc2ccc(C(=O)c3ccccc3)cc2n2cnnc12`, the survival was inactive: 75%. `CCOC(=O)Cc1ccc(NC(=O)N2CCc3c(sc4c3CCCC4)C2c2ccc(F)cc2)cc1` (stereo unspecified): the survival is inactive: 81%. To `CCn1c(=O)c2cc(C(=O)N3CCN(c4cccc(OC)c4)CC3)sc2c2ccccc21` belongs inactive: 69%. The same measure for `Cc1ccc(NC(=O)CN(C)S(=O)(=O)c2cccc3cccnc23)cc1F`: inactive: 71%.

`Cc1sc2ncn(CC(=O)N3CCN(c4ccccc4)CC3)c(=O)c2c1S(=O)(=O)N1CCN(c2ncccn2)CC1`: the survival is inactive: 157%. `CCc1cccc(-n2nnc(-c3nsc(NC(=O)c4ccc(C)cc4)n3)c2C)c1`: the survival was inactive: 53%. Take `CN(CC(=O)Nc1ccc(Cl)cc1F)S(=O)(=O)c1ccc2c(c1)n(C)c(=O)c(=O)n2C`: the survival is inactive: 120%. Consider `CCc1ccc(C(c2ccccc2)c2c[nH]c3ccc(C)cc23)s1` (stereo unspecified), for which the survival is inactive: 52%. To `Fc1ccc(C(Nc2ccccc2Cl)c2nnc(-c3ccccc3Cl)o2)cc1` (stereo unspecified) belongs inactive: 89%; to `CC(C(=O)Nc1ccccc1C(F)(F)F)n1nnc2sc3c(c2c1=O)CCCC3` (stereo unspecified), inactive: 88%; to `O=C(N/C(=C\c1ccc(F)cc1)C(=O)N1CCOCC1)c1ccccc1`, inactive: 97%. The same measure for `Cc1ccc(NC(=O)c2cccc(N3CCCS3(=O)=O)c2)cc1C`: inactive: 72%; for `Cc1ccc(NC(=O)[C@H]2O[C@@H]3OC(C)(C)O[C@@H]3[C@H]3OC(C)(C)O[C@H]32)cc1F`: inactive: 98%. The same measure for `CCS(=O)(=O)NCC(c1ccco1)N1CCN(c2ccccc2)CC1` (stereo unspecified): inactive: 89%.

Consider `CCc1ccc(CNC(=O)CSc2c3c(nc4ccc(Cl)cc24)CCCC3)cc1`, for which the survival was inactive: 76%. The same measure for `O=C(NCCn1cc(SCc2ccccc2F)c2ccccc21)c1cccs1`: inactive: 64%; for `Cc1ccc2c(c1)C(c1ccccc1)N(C(=O)c1ccc(S(=O)(=O)N3CCCCC3)cc1)CC(=O)N2` (stereo unspecified): inactive: 86%; for `CSc1nc(Nc2ccc(C)cc2)c(C#N)c(-c2ccccc2)n1`: inactive: 114%. Consider `Oc1c(C(c2ccccc2)N2CCN(c3cccc(Cl)c3)CC2)sc2nc(-c3ccco3)nn12` (stereo unspecified), for which the survival is inactive: 88%. With `Cc1ccc(CSc2ncc(Cl)c(C(=O)Nc3nc4ccc(C)cc4s3)n2)cc1`, the survival was inactive: 86%. The same measure for `Cc1ccc(NC(=O)c2cc3nc(-c4ccc5c(c4)OCO5)cc(C(F)(F)F)n3n2)cc1Cl`: inactive: 76%; for `O=C(NCc1ccc(F)cc1)c1ccc(CS(=O)Cc2ccc(Cl)cc2)o1` (stereo unspecified): inactive: 106%. To `O=c1c(=O)n(-c2ccccc2)ccn1Cc1cccc(C(F)(F)F)c1` belongs inactive: 108%. The same measure for `O=C1COc2ccc(-c3cc(-c4ccc(F)cc4)c4c(n3)-c3cc(Cl)ccc3OC4)cc2N1`: inactive: 81%; for `COc1ccccc1CNS(=O)(=O)c1cc(Br)cc2c1N(C(C)=O)C(C)C2` (stereo unspecified): inactive: 64%; for `Cc1ccc(N2CC(c3nnc(Cc4ccc(F)cc4)o3)CC2=O)cc1` (stereo unspecified): inactive: 25%. On to `Cc1c(C(=O)Nc2ccccc2Cl)sc2ncnc(N(C)C3CCCCC3)c12`, for which the survival was inactive: 81%. The same measure for `CCc1ccc(CNC(=O)C2CCCN(c3nnc(C)c4c(C)n(-c5ccc(OC)cc5)nc34)C2)cc1` (stereo unspecified): inactive: 71%; for `O=C(Cc1cccs1)Nc1ccccc1`: inactive: 105%. For `COc1cc(Cl)c(NC(=O)c2cc(CN3CCCC3)on2)c(OC)c1`, the survival is inactive: 73%.

Regarding `Cc1oc(-c2ccccc2F)nc1CSCC(=O)NCc1ccccc1`, the survival was inactive: 62%. To `Cc1cccc(C)c1NC(=O)CSc1ncc2c(n1)-c1ccc(Cl)cc1N(Cc1ccccc1)S2(=O)=O` belongs active: -2%; to `COc1ccc(Cn2ccnc2SCC(=O)NC2CCCC2)cc1`, inactive: 87%.

Turning to `CC(CCc1ccccc1)NC(=O)Cn1c(=O)nc(-c2ccccc2F)c2cc(Cl)ccc21` (stereo unspecified), the survival was inactive: 70%.

For `COc1ccc2c(c1)CC(C(=O)Nc1cccc(C)c1C)CO2` (stereo unspecified), the survival was inactive: 79%. In the case of `CC(C)c1ccc(NC(=O)C2CCCN(S(=O)(=O)c3cccc4nsnc34)C2)cc1` (stereo unspecified), the survival is inactive: 70%. To `COc1cccc(-n2ccnc2SCC(=O)Nc2ccc(Cl)c(Cl)c2)c1` belongs inactive: 140%; to `COC(=O)c1ccc(NS(=O)(=O)c2c(C)nc3sccn3c2=O)cc1`, inactive: 85%.

On to `O=C(CSc1nccn1-c1ccc(Cl)cc1)Nc1cccc2ccccc12`, for which the survival was inactive: 74%. As to `CSc1ccc(CCNC(=O)c2ccc3c(c2)nc2n3CCCCC2)cc1`, the survival was inactive: 99%. In the case of `CCOC(=O)Cn1c(=O)n(C2CCCCC2)c2nc(-c3ccc(OCC)cc3)nc(C(N)=O)c21`, the survival was inactive: 117%.

Regarding `COc1ccc(C2CC(=O)c3cnc4c(-c5ccccc5)c(C)nn4c3C2)cc1OC` (stereo unspecified), the survival was inactive: 71%. To `Cc1nn(C)c2c1c(C(F)(F)F)cc(=O)n2C(C)C(=O)NCCc1ccc(Cl)cc1` (stereo unspecified) belongs inactive: 81%. As to `Cc1c(-c2cccc(NC(=O)c3ccc(F)c(F)c3)c2)nc2ncccn12`, the survival is inactive: 71%.

As to `COCCOC(=O)c1c(C)oc2c1cc(NS(=O)(=O)c1ccc(Cl)c(C)c1)c1ccccc12`, the survival is inactive: 58%. The same measure for `CCc1ccccc1NS(=O)(=O)c1ccc2oc(=O)c3ncn(C)c3c2c1`: inactive: 124%; for `COc1ccc(OC)c(NC(=O)CSc2nnc(NC(=O)C3CC3)s2)c1`: inactive: 135%; for `COc1ccc(OCc2ccc(-c3nc(C#N)c(NCc4ccccc4)o3)o2)cc1`: inactive: 83%.

`Cc1ccc(Oc2coc3cc(OCC(=O)NC4CCCCC4)ccc3c2=O)cc1`: the survival is inactive: 77%.

For `N#Cc1ccc(C(=O)Nc2ccccc2-c2nc3ccccc3s2)c(F)c1`, the survival was inactive: 78%.

Take `CNS(=O)(=O)c1ccc(NC(=O)c2cnn3c(C(F)F)cc(-c4ccccc4)nc23)cc1`: the survival was inactive: 67%. To `CCOC(=O)c1cnc2c(Cl)c(Cl)ccc2c1NCCN1CCOCC1` belongs inactive: 69%; to `CCOC(=O)Cc1ccc(NC(=O)n2ncc3cc(Cl)ccc32)cc1`, inactive: 85%. The same measure for `O=C(Nc1ccc(F)cc1Cl)C1CCN(c2ncnc3c2nc2n3CCCCC2)CC1`: inactive: 77%; for `S=c1[nH]c2c(s1)sc1ccccc12`: inactive: 57%. Consider `CN(C1CCCCC1)S(=O)(=O)c1ccc2c(c1)c(=O)c(C(=O)NCc1ccccc1Cl)cn2C`, for which the survival is inactive: 79%.
